Reference: patent US20190062448A1, “ANTI-CD39 ANTIBODIES, COMPOSITIONS COMPRISING ANTI-CD39 ANTIBODIES AND METHODS OF USING ANTI-CD39 ANTIBODIES” (Tizona Therapeutics, priority 2017, published 2019)

Columns and labels:
[1] = target: T1, hCD39-ECD (Homo sapiens, UniProt P49961); assay: Epitope binning / competition for hCD39-ECD binding by Bio-Layer Interferometry; settings: A1 immobilized, ECD captured, then competitor antibody
T1 sequence (P49961 38-478 limits assumed): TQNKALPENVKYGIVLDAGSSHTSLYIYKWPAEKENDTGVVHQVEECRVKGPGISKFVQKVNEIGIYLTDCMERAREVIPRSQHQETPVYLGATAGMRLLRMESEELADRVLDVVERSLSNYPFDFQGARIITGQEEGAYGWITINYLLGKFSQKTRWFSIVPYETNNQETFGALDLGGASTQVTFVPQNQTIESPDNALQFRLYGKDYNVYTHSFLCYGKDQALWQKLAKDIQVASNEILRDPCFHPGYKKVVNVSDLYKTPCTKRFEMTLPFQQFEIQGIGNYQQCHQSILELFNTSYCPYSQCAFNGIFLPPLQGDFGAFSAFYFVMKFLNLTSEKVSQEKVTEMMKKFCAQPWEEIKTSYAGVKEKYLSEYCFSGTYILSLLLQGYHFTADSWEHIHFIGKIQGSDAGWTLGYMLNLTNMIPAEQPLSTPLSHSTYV
Source text: A1 antibody was immobilized onto an Anti-Mouse IgG Fc Capture (AMC) biosensor (ForteBio). Association of hCD39-ECD was then monitored for 180 seconds via Bio-Layer Interferometry (BLI) using the Octet system (ForteBio), at which point the biosensor was dipped into competitor antibody and monitored for another 180 seconds.
The methods are the same as set forth above except that instead of A1, the representative antibody was immobilized using anti-human IgG Fc Capture (AHC) biosensor.
Also, an 18 hour incubation was used with the antibody or isotype control. Finally, an additional 30 second baseline dip in buffer between antigen capture and dipping into a second competitor antibody for 300 seconds was used.

[2] = target: T2, human-mouse CD39 chimeras (Homo sapiens, UniProt P49961, E276G/I277V/N275G); assay: Binding to human-mouse CD39 chimeras and point mutants expressed in CHO cells (FACS); settings: 15 μg/ml antibody
T2 construct: expressed in transfected cells; host or cells: CHO cells
T2 sequence (P49961 1-510 N275G/E276G/I277V): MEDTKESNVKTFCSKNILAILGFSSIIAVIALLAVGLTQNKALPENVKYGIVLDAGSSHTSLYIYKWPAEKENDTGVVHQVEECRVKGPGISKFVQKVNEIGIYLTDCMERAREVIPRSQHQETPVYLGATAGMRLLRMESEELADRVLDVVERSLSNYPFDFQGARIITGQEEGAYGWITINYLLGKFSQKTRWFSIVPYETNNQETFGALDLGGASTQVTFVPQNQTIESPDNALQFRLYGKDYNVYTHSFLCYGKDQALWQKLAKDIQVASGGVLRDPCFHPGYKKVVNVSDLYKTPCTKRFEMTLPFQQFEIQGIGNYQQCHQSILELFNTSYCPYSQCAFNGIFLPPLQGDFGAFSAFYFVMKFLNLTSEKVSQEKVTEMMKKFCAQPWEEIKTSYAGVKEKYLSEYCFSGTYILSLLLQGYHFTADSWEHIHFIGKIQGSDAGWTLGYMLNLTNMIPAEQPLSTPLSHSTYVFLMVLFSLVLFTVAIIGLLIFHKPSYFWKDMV
Experimental: (§1) Chimeras were generated by replacing human CD39 with mouse CD39 sequence in mammalian expression vectors. The chimeras were expressed in CHO cells and the ability of anti-human CD39 antibodies to bind the chimeras tested via FACS. In brief, cells were washed and blocked in FACS buffer (PBS/2% FBS) for 30 min on ice. They were then incubated with 15 μg/ml anti-human CD39 antibodies diluted in FACS buffer×1 h on ice. After 2 washes, cells were incubated with fluorescently labeled anti-human Fc antibodies, anti-mouse Fc antibodies, or anti-mCD39 antibody (R&D Systems 495826) diluted in FACS buffer per manufacturers' instructions×30 min on ice. After 2 washes, cells were resuspended in FACS buffer and analyzed on BD Fortessa. Data was processed with FlowJo. Positive binding was scored as “yes” and lack of binding was scored as “NO” and examples of FACS plots used to generate this table are in FIGS. 14.F and 14.G.
(§2) Chimeras were generated by mutagenesis of Chimera #2 or WT hCD39 expression vectors. Residues for mutagenesis were chosen based on divergence between human and mouse CD39. The chimeras were expressed in CHO cells and the ability of anti-human CD39 antibodies to bind the chimeras tested via FACS, as described in FIG. 14E. Table 2. Positive binding was scored as “Yes” and lack of binding was scored as “No” and examples of FACS plots used to generate this table are in FIGS. 14.F and 14.G.

[3] = target: T3, human-mouse CD39 chimeras (Homo sapiens, UniProt P49961, D150A/E143Q/E153S/L144S/N158S/R147E/R154T/S157K/V151A); assay: as above; settings: 15 μg/ml antibody
T3 construct: expressed in transfected cells; host or cells: CHO cells
T3 sequence (P49961 1-510 E143Q/L144S/R147E/D150A/V151A/E153S/R154T/S157K/N158S): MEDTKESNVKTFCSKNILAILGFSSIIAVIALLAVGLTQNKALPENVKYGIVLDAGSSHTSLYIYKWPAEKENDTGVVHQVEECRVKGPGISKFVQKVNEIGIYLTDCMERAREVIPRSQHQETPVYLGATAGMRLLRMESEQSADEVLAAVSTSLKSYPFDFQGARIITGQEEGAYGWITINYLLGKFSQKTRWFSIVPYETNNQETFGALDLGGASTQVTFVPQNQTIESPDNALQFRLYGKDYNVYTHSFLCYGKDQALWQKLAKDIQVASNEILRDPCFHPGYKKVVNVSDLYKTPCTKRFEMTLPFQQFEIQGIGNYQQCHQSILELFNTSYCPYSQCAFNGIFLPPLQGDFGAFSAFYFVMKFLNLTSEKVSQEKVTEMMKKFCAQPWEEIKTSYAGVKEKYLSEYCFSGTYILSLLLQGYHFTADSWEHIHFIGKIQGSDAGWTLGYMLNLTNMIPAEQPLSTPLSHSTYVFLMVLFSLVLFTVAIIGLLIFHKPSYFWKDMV
Experimental: as §1, §2

[4] = target: T4, human CD39 on CHO CD39 cells (Homo sapiens, UniProt P49961); assay: Binding to CHO cells expressing human CD39 (flow cytometry)
T4 construct: expressed in transfected cells; host or cells: Chinese Hamster Ovary K1 (CHO)
T4 sequence (P49961 1-510): T2 sequence (P49961 1-510 N275G/E276G/I277V) with G275N, G276E, V277I
Experimental: Binding of anti-CD39 IgGs to Chinese Hamster Ovary K1 (CHO) CD39 cells. 100 nanomolar IgGs (each antibody is indicated as a unique clone number in the FIG.) were incubated at 25° C. for 30 minutes on ice in phosphate buffered saline (PBS) with parental CHO cells or CHO cells engineered to express either human or cynomolgus macaque (Macaca fascicularis) CD39 (CHO CD39 cells). Cells were then washed with ice cold PBS and incubated with a fluorescently labeled goat-anti-human IgG for 20 minutes on ice. Cells were washed and resuspended in ice cold PBS prior to analysis by flow cytrometry. Fold over background binding levels represent the ratio of median fluorescence intensity (MFI) values for anti-CD39 antibodies binding to CHO CD39 to MFI values for anti-CD39 antibodies binding to the parental CHO cells.

competition with antibody A1 for binding to hCD39 ECD [1]: does not block binding
B1: 38347: inhibitory antibody as printed in b528, b532, b535; probably misprint of 28347 (antibody, V domains shown)
VH: QVQLVQSGAEVKKPGSSVKVSCKASGGTFSSLAISWVRQAPGQGLEWMGGIIPIFGTANYAQKFQGRVTITADESTNTAYMELSSLRSEDTAVYYCARGGAKYASTYGMDVWGQGTTVTVSS
VL: DIVMTQSPDSLAVSLGERATINCKSSQSVLFSSNNKNYLAWYQQKPGQPPKLLIYWASTRESGVPDRFSGSGSGTDFTLTISSLQAEDVAVYYCQQYYLYPLTFGGGTKVEIK

binding to Chimera #4 [2]: able to bind all chimeras but Chimera #2
B2: 31873: inhibitory anti-CD39 antibody, contacts E143-N158 incl. E153, R154; sensitive to N99 (antibody)
heavy: QVQLVQSGAEVKKPGSSVKVSCKASGGTFSKYGISWVRQAPGQGLEWMGSIIPEFGIANYAQKFQGRVTITADESTSTAYMELSSLRSEDTAVYYCARESGGYRDHRLGVWGQGTMVTVSSASTKGPSVFPLAPCSRSTSESTAALGCLVKDYFPEPVTVSWNSGALTSGVHTFPAVLQSSGLYSLSSVVTVPSSSLGTKTYTCNVDHKPSNTKVDKRV[human IgG4 Fc with S228P (EU numbers) left out here]
light: EIVMTQSPATLSVSPGERATLSCRASQSVGSNLAWYQQKPGQAPRLLIYGASTRASGIPARFSGSGSGTEFTLTISSLQSEDFAVYYCQQYLLWPLTFGGGTKVEIKRTVAAPSVFIFPPSDEQLKSGTASVVCLLNNFYPREAKVQWKVDNALQSGNSQESVTEQDSKDSTYSLSSTLTLSKADYEKHKVYACEVTHQGLSSPVTKSFNRGEC
modifications: Synthetic HC, 31873; Synthetic LC, 31873
notes: E153, R154; sensitive to N99
binding to Chimera #2 (human E143-N158 replaced by mouse sequence) [3]: able to bind all chimeras but Chimera #2; also recorded: inability to recognize Chimera #2

binding to Chimera #4 [2]: able to bind all chimeras but Chimera #2
B3: 31901: inhibitory anti-CD39 antibody, contacts E143-N158 incl. E153, R154; sensitive to N99 (antibody)
heavy: QVQLVQSGAEVKKPGSSVKVSCKASGGTFSSLPISWVRQAPGQGLEWMGGIGFGTANYAQKFQGRVTITADESTSTAYMELSSLRSEDTAVYYCARGGAKYAGRYGMDVWGQGTTVTVSSASTKGPSVFPLAPCSRSTSESTAALGCLVKDYFPEPVTVSWNSGALTSGVHTFPAVLQSSGLYSLSSVVTVPSSSLGTKTYTCNVDHKPSNTKVDKRV[human IgG4 Fc with S228P (EU numbers) left out here]
light: GIVMTQSPDSLAVSLGERATINCKSSQSVLFSSNNKNYLAWYQQKPGQPPKLLIYWASTRASGVPDRFSGSGSGTDFTLTISSLQAEDVAVYYCQQYYLYPLTFGGGTKVEIKRTVAAPSVFIFPPSDEQLKSGTASVVCLLNNFYPREAKVQWKVDNALQSGNSQESVTEQDSKDSTYSLSSTLTLSKADYEKHKVYACEVTHQGLSSPVTKSFNRGEC
modifications: Synthetic HC, 31901; Synthetic LC, 31901
notes: E153, R154; sensitive to N99
binding to Chimera #2 (human E143-N158 replaced by mouse sequence) [3]: able to bind all chimeras but Chimera #2; also recorded: inability to recognize Chimera #2

binding to Chimera #4 [2]: able to bind all chimeras but Chimera #2
B4: 31905: inhibitory anti-CD39 antibody, contacts E143-N158 incl. E153, R154; sensitive to N99 (antibody)
heavy: B3 heavy with S30P, L32N, P33A, G103R, R104T
light: B3 light with G1D, Q27K, F31Y, S33N, A61Q, Y98L
modifications: Synthetic HC, 31905; Synthetic LC, 31905
notes: E153, R154; sensitive to N99
binding to Chimera #2 (human E143-N158 replaced by mouse sequence) [3]: able to bind all chimeras but Chimera #2; also recorded: inability to recognize Chimera #2

binding to cellular human CD39 (in words) [4]: did not show significant binding
B5: 27575: anti-CD39 antibody without significant binding to CHO CD39 cells (antibody)
heavy: QVQLVQSGAEVKEPGSSVKVSCKASGGTFSSYATSWVRQAPGQGLEWMGGIIPISGTANYAQEFQGRVTITADESTSTAYMELSSLRSEDTAVYYCARDGGGYRHHYFDLWGRGTLVTVSSASTKGPSVFPLAPCSRSTSESTAALGCLVKDYFPEPVTVSWNSGALTSGVHTFPAVLQSSGLYSLSSVVTVPSSSLGTKTYTCNVDHKPSNTKVDKRV[human IgG4 Fc with S228P (EU numbers) left out here]
light: EIVLTQSPATLSLSPGERATLSCRASQSVSRYLAWYQQKPGQAPRLLIYDASNRATGIPARFSGSGSGTDFTLTISSLEPEDFAVYYCQQHVNFPLTFGGGTKVEIKRTVAAPSVFIFPPSDEQLKSGTASVVCLLNNFYPREAKVQWKVDNALQSGNSQESVTEQDSKDSTYSLSSTLTLSKADYEKHKVYACEVTHQGLSSPVTKSFNRGEC
modifications: Synthetic HC, 27575; Synthetic LC, 27575

Positions count from the first letter of the chain named. “Also recorded” adds a separate entry of the source. One block for each molecule: values may come before it.
